According to publication PMC6026317, “Molecular elements in FGF19 and FGF21 defining KLB/FGFR activity and specificity” (Molecular Metabolism, 2018):

Key:
[1] = target: T1, Soluble human FGFR4/KLB receptor complex (FGFR4 ectodomain-Fc with soluble KLB) (human, UniProt P22455 22-369; Q86Z14 1-996); assay: AlphaScreen or HTRF; cell-free competition: biotinylated FGF21 on streptavidin donor beads, FGFR1c-Fc or FGFR4-Fc ectodomain on Protein A acceptor beads, human soluble KLB added to give the signal; 5 μg/ml heparin, 0.1% BSA; increasing doses of unlabelled protein or peptide displace biotinylated FGF21; settings: both partners purified
T1 construct: human FGFR4 ectodomain fused to Fc, coupled to Protein A acceptor beads; human beta-Klotho (KLB) protein, called human soluble KLB; also called hFGFR4/KLB; source: bought: R&D Systems (both chains)
T1 sequence (looked up) 1: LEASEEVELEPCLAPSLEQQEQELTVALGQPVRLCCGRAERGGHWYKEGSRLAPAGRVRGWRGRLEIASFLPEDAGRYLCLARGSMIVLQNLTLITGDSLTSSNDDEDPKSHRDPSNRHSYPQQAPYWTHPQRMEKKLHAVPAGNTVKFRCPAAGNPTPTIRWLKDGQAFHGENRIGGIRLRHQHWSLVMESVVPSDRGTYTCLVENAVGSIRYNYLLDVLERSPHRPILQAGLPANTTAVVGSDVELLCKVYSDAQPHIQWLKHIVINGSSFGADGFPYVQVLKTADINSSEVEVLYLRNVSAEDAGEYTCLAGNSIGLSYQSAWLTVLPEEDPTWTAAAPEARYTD
T1 sequence (looked up) 2: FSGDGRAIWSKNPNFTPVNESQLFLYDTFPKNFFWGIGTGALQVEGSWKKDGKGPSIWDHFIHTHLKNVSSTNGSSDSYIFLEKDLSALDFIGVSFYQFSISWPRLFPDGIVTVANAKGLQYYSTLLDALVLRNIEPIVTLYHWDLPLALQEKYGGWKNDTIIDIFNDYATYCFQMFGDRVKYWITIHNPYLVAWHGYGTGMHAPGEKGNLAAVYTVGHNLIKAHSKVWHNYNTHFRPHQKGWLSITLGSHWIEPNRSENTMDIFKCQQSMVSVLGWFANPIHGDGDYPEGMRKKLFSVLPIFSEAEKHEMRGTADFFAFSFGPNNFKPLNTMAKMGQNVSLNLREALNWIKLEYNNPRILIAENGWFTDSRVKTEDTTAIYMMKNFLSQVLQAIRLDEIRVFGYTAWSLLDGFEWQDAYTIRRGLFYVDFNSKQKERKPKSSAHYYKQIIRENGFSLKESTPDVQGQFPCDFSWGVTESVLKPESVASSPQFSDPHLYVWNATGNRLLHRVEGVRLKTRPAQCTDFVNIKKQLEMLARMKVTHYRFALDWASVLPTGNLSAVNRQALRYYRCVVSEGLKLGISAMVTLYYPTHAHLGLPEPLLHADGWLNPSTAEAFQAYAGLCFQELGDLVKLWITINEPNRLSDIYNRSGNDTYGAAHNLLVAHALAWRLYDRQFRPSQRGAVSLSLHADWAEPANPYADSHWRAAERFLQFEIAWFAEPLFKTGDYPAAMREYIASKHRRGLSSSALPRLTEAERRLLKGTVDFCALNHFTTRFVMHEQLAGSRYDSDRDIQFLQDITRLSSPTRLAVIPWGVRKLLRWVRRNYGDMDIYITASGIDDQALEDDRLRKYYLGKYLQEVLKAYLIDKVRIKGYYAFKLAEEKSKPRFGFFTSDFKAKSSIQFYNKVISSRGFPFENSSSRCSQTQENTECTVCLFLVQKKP

[2] = target: T2, Soluble human FGFR1c/KLB receptor complex (FGFR1c ectodomain-Fc with soluble KLB) (human, UniProt P11362 22-376; Q86Z14 1-996); assay: as above; settings: both partners purified
T2 construct: human FGFR1c ectodomain fused to Fc, coupled to Protein A acceptor beads; human beta-Klotho (KLB) protein, called human soluble KLB; also called FGFR1/KLB complex; soluble FGFR1/KLB receptor complex; source: bought: R&D Systems (both chains)
T2 sequence (looked up) 1: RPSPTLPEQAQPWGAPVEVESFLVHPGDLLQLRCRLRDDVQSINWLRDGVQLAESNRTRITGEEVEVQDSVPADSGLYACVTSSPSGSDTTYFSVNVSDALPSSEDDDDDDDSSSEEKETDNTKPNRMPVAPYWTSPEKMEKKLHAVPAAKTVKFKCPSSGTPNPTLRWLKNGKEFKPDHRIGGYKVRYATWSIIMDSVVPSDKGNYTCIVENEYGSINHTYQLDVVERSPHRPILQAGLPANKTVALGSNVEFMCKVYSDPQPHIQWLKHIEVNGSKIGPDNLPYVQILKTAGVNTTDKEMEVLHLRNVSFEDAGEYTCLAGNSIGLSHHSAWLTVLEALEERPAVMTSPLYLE
T2 sequence (looked up) 2: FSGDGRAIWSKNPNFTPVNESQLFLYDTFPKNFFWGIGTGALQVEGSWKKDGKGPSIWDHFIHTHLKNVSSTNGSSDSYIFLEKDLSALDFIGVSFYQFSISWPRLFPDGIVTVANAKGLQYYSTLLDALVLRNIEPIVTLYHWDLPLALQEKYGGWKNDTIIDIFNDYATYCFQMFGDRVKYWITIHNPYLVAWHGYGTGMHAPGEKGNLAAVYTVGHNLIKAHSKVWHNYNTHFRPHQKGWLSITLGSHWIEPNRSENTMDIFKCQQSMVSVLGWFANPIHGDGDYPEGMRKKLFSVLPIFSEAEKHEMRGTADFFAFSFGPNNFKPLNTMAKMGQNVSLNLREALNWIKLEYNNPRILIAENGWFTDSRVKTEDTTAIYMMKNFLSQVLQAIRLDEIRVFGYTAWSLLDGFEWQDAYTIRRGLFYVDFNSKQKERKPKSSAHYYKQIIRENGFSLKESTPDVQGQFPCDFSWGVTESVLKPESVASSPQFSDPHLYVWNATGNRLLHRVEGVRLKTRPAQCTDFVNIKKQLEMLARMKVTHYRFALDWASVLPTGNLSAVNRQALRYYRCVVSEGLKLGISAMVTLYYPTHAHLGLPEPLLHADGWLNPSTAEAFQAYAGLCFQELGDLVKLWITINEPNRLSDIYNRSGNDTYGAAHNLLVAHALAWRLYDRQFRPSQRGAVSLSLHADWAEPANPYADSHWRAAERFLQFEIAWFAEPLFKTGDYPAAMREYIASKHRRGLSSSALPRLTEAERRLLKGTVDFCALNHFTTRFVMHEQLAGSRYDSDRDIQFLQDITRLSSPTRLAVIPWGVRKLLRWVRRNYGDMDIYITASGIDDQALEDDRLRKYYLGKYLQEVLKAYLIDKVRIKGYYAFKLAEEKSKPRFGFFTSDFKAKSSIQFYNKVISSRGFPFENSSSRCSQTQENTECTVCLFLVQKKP

IC50 [1]: 10.6 nM
IC50 [2]: 270 nM
B1: Human FGF19 ([…]) (ligand)
chain: not shown
notes: also called fibroblast growth factor 19; native FGF19; source: E. coli OrigamiB (DE3), purified (Ni-NTA, SUMO protease digestion, Q-Sepharose)
